# Measurements as given in the supplement of paper PMC8728848.
# The list shows a part of the results.
# B1: SSR2 (Sclerotium rolfsii) (protein)
# chain: MVYKITVRVYQTNPDAFFHPVEKTVWKYANGGTWSITDDQHVLTMGGSGTSGTLRFHADNGESFTATFGVHNYKRWCDIVTNLAADETGMVINQQYYSQKNREEARERQLSNYQVKNAKGRNFQIVYTEAEGNDLHANLIIG
# Legend:
# Experiment in all cases: glycan array binding signal (z-score within array); higher = stronger binding
# Settings in all cases: glycan notation: IUPAC condensed, linker removed
# [1] = molecular target: GalNAc(b1-4)GlcNAc
# Summary of the method: (§1)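 The Consortium for Functional Glycomics database supplied 3228 glycan arrays, of which those lacking an available protein sequence were dropped. The binding signal, a within-array Z-score, was averaged across arrays of the same protein sequence and across linkers. Negative scores can be read as non-binding.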
# [2] = molecular target: GalNAc(b1-4)GlcNAc(b1-2)Man
# Summary of the method: as §1
# [3] = molecular target: GalNAc(b1-4)GlcNAc(b1-2)Man(a1-3)[GalNAc(b1-4)GlcNAc(b1-2)Man(a1-6)]Man(b1-4)GlcNAc(b1-4)GlcNAc
# Summary of the method: as §1
# [4] = molecular target: GalNAc(b1-4)GlcNAc(b1-3)GalNAc(b1-4)GlcNAc
# Summary of the method: as §1
# [5] = molecular target: GalNAc(b1-4)GlcNAc6S
# Summary of the method: as §1
# [6] = molecular target: GalNAc(b1-6)GalNAc
# Summary of the method: as §1
# [7] = molecular target: GalNAc3S(b1-4)GlcNAc
# Summary of the method: as §1
# [8] = molecular target: GalNAc3S(b1-4)GlcNAc3S
# Summary of the method: as §1
# [9] = molecular target: GalNAc3S(b1-4)[Fuc(a1-3)]GlcNAc
# Summary of the method: as §1
# [10] = molecular target: GalNAc4S6S(b1-4)GlcNAc
# Summary of the method: as §1
# [11] = molecular target: GalNAc6S(b1-4)GlcNAc
# Summary of the method: as §1
# [12] = molecular target: Glc(a1-4)Glc
# Summary of the method: as §1
# [13] = molecular target: Glc(a1-4)Glc(a1-4)Glc(a1-4)Glc
# Summary of the method: as §1
# [14] = molecular target: Glc(a1-6)Glc(a1-6)Glc
# Summary of the method: as §1
# [15] = molecular target: Glc(a1-6)Glc(a1-6)Glc(a1-6)Glc
# Summary of the method: as §1
# [16] = molecular target: Glc(b1-4)Glc
# Summary of the method: as §1
# [17] = molecular target: Glc(b1-6)Glc
# Summary of the method: as §1
# [18] = molecular target: GlcA(b1-3)Gal
# Summary of the method: as §1
# [19] = molecular target: GlcA(b1-3)GlcNAc
# Summary of the method: as §1
# [20] = molecular target: GlcA(b1-6)Gal
# Summary of the method: as §1
# [21] = molecular target: GlcA3S(b1-3)Gal(b1-4)GlcNAc(b1-2)Man
# Summary of the method: as §1
# [22] = molecular target: GlcA3S(b1-3)Gal(b1-4)GlcNAc(b1-3)Gal(b1-4)Glc
# Summary of the method: as §1
# [23] = molecular target: GlcNAc(a1-3)Gal(b1-4)GlcNAc
# Summary of the method: as §1
# [24] = molecular target: GlcNAc(a1-4)Gal(b1-3)GlcNAc
# Summary of the method: as §1
# [25] = molecular target: GlcNAc(a1-4)Gal(b1-4)GalNAc
# Summary of the method: as §1
# [26] = molecular target: GlcNAc(a1-4)Gal(b1-4)GlcNAc
# Summary of the method: as §1
# [27] = molecular target: GlcNAc(a1-4)Gal(b1-4)GlcNAc(b1-3)Gal(b1-4)Glc
# Summary of the method: as §1
# [28] = molecular target: GlcNAc(a1-4)Gal(b1-4)GlcNAc(b1-3)Gal(b1-4)GlcNAc
# Summary of the method: as §1
# [29] = molecular target: GlcNAc(a1-4)Gal(b1-4)GlcNAc(b1-3)Gal(b1-4)GlcNAc(b1-3)Gal(b1-4)GlcNAc
# Summary of the method: as §1
# [30] = molecular target: GlcNAc(a1-4)Gal(b1-4)GlcNAc(b1-3)Gal(b1-4)[Fuc(a1-3)]GlcNAc(b1-3)Gal(b1-4)[Fuc(a1-3)]GlcNAc
# Summary of the method: as §1
# [31] = molecular target: GlcNAc(a1-6)Gal(b1-4)GlcNAc
# Summary of the method: as §1
# [32] = molecular target: GlcNAc(b1-2)Gal(b1-3)GalNAc
# Summary of the method: as §1
# [33] = molecular target: GlcNAc(b1-2)Man(a1-3)[GlcNAc(b1-2)Man(a1-6)]Man(b1-4)GlcNAc(b1-4)GlcNAc
# Summary of the method: as §1
# [34] = molecular target: GlcNAc(b1-2)Man(a1-3)[GlcNAc(b1-2)Man(a1-6)]Man(b1-4)GlcNAc(b1-4)[Fuc(a1-6)]GlcNAc
# Summary of the method: as §1
# [35] = molecular target: GlcNAc(b1-2)Man(a1-3)[GlcNAc(b1-4)][GlcNAc(b1-2)Man(a1-6)]Man(b1-4)GlcNAc(b1-4)GlcNAc
# Summary of the method: as §1
# [36] = molecular target: GlcNAc(b1-2)Man(a1-3)[GlcNAc(b1-4)][GlcNAc(b1-2)Man(a1-6)]Man(b1-4)GlcNAc(b1-4)[Fuc(a1-6)]GlcNAc
# Summary of the method: as §1
# [37] = molecular target: GlcNAc(b1-2)[GlcNAc(b1-4)]Man(a1-3)[GlcNAc(b1-2)Man(a1-6)]Man(b1-4)GlcNAc(b1-4)GlcNAc
# Summary of the method: as §1
# [38] = molecular target: GlcNAc(b1-2)[GlcNAc(b1-4)]Man(a1-3)[GlcNAc(b1-4)][GlcNAc(b1-2)Man(a1-6)]Man(b1-4)GlcNAc(b1-4)GlcNAc
# Summary of the method: as §1
# [39] = molecular target: GlcNAc(b1-2)[GlcNAc(b1-4)]Man(a1-3)[GlcNAc(b1-4)][GlcNAc(b1-2)[GlcNAc(b1-6)]Man(a1-6)]Man(b1-4)GlcNAc(b1-4)GlcNAc
# Summary of the method: as §1
# [40] = molecular target: GlcNAc(b1-2)[GlcNAc(b1-4)]Man(a1-3)[GlcNAc(b1-4)][GlcNAc(b1-2)[GlcNAc(b1-6)]Man(a1-6)]Man(b1-4)GlcNAc(b1-4)[Fuc(a1-6)]GlcNAc
# Summary of the method: as §1
# [41] = molecular target: GlcNAc(b1-2)[GlcNAc(b1-6)]Man(a1-6)[GlcNAc(b1-2)Man(a1-3)]Man(b1-4)GlcNAc(b1-4)GlcNAc
# Summary of the method: as §1
# [42] = molecular target: GlcNAc(b1-2)[GlcNAc(b1-6)]Man(a1-6)[GlcNAc(b1-2)Man(a1-3)]Man(b1-4)GlcNAc(b1-4)[Fuc(a1-6)]GlcNAc
# Summary of the method: as §1
# [43] = molecular target: GlcNAc(b1-2)[GlcNAc(b1-6)]Man(a1-6)[GlcNAc(b1-4)][GlcNAc(b1-2)Man(a1-3)]Man(b1-4)GlcNAc(b1-4)GlcNAc
# Summary of the method: as §1
# [44] = molecular target: GlcNAc(b1-3)Fuc
# Summary of the method: as §1
# [45] = molecular target: GlcNAc(b1-3)Gal
# Summary of the method: as §1
binder,measurement,setting,value
B1,glycan array binding signal (z-score),[1],-0.285
same,glycan array binding signal (z-score),[2],-0.284
same,glycan array binding signal (z-score),[3],-0.274
same,glycan array binding signal (z-score),[4],-0.283
same,glycan array binding signal (z-score),[5],-0.294
same,glycan array binding signal (z-score),[6],-0.282
same,glycan array binding signal (z-score),[7],-0.287
same,glycan array binding signal (z-score),[8],-0.285
same,glycan array binding signal (z-score),[9],-0.294
same,glycan array binding signal (z-score),[10],-0.291
same,glycan array binding signal (z-score),[11],-0.29
same,glycan array binding signal (z-score),[12],-0.262
same,glycan array binding signal (z-score),[13],-0.286
same,glycan array binding signal (z-score),[14],-0.283
same,glycan array binding signal (z-score),[15],-0.284
same,glycan array binding signal (z-score),[16],-0.279
same,glycan array binding signal (z-score),[17],-0.269
same,glycan array binding signal (z-score),[18],-0.282
same,glycan array binding signal (z-score),[19],-0.282
same,glycan array binding signal (z-score),[20],-0.267
same,glycan array binding signal (z-score),[21],-0.288
same,glycan array binding signal (z-score),[22],-0.292
same,glycan array binding signal (z-score),[23],3.71
same,glycan array binding signal (z-score),[24],1.74
same,glycan array binding signal (z-score),[25],0.967
same,glycan array binding signal (z-score),[26],2.16
same,glycan array binding signal (z-score),[27],2.56
same,glycan array binding signal (z-score),[28],2.84
same,glycan array binding signal (z-score),[29],6.99
same,glycan array binding signal (z-score),[30],2.78
same,glycan array binding signal (z-score),[31],0.528
same,glycan array binding signal (z-score),[32],-0.29
same,glycan array binding signal (z-score),[33],6.77
same,glycan array binding signal (z-score),[34],2.06
same,glycan array binding signal (z-score),[35],2.45
same,glycan array binding signal (z-score),[36],2.85
same,glycan array binding signal (z-score),[37],2.71
same,glycan array binding signal (z-score),[38],1.68
same,glycan array binding signal (z-score),[39],1.08
same,glycan array binding signal (z-score),[40],-0.095
same,glycan array binding signal (z-score),[41],4.32
same,glycan array binding signal (z-score),[42],4.49
same,glycan array binding signal (z-score),[43],1.23
same,glycan array binding signal (z-score),[44],-0.269
same,glycan array binding signal (z-score),[45],-0.284
